These results are taken from the antibiotic and cytotoxicity screens of Wong et al. (2023).

The list shows a part of the results.

This test concerns S. aureus RN4220. Description: growth inhibition call (relative growth <= 0.2). The following applies: 50 µM.
Consider `C[C@H](CO)N1C[C@H](C)[C@H](CN(C)C(=O)c2ccccc2)Oc2cc(C#CC3(O)CCCC3)ccc2S1(=O)=O`, for which the growth inhibition call is “inactive”. The value for `Cc1nc(=O)[nH]c(C(=O)O)c1C` was “inactive”; that for `C[C@@H]1CN([C@@H](C)CO)C(=O)c2cc(NC(=O)Nc3cccc4ccccc34)ccc2O[C@H]1CN(C)S(=O)(=O)c1cccs1` was “inactive”; that for `O=C(CSc1nnc(-c2ccccc2)n1C1CCCCC1)Nc1ccc(S(=O)(=O)Nc2ccccn2)cc1` was “inactive”. As for `COc1ccc(S(=O)(=O)N(C)C[C@H]2Oc3ccc(NC(=O)Nc4c(C)noc4C)cc3CC(=O)N([C@H](C)CO)C[C@H]2C)cc1`, the entry is “inactive”; as for `Cc1cc(C(=O)Nc2cccc3c2O[C@@H](CN(C)S(=O)(=O)c2ccccc2)[C@@H](C)CN([C@@H](C)CO)C3=O)n(C)n1`, “inactive”; as for `CC(C)CC#Cc1cnc2c(c1)C(=O)N([C@@H](C)CO)C[C@@H](C)[C@@H](CN(C)C(=O)CN1CCOCC1)O2`, “inactive”. The value for `C=CCOC(=O)[C@@H]1[C@H]2C(=O)O[C@H](c3ccccc3)[C@H](c3ccccc3)N2[C@H](c2ccc(OCCOC(=O)[C@@H]3C[C@@H]4C(=O)N[C@@H](CCCC[N+](C)(C)C)C(=O)N4[C@@H]3c3cccc(OCCO)c3)cc2)[C@@]12C(=O)Nc1ccccc12` was “inactive”; that for `Cc1ccc(S(=O)(=O)N(C)C[C@H]2Oc3ncc(C#CC4(O)CCCC4)cc3C(=O)N([C@@H](C)CO)C[C@H]2C)cc1` was “inactive”. Turning to `Cc1ccc(O)cc1`, the growth inhibition call is “inactive”. The value for `COc1ccc(S(=O)(=O)Nc2cccc3c2O[C@@H](CN(C)S(=O)(=O)c2ccccc2)[C@H](C)CN([C@H](C)CO)C3=O)cc1` was “inactive”; that for `CCOc1cc(CC(=O)NC(CC(C)C)c2ccccc2N2CCCCC2)ccc1C(=O)O` (stereo not given) was “inactive”; that for `C[C@H]1CCCCO[C@@H](CN(C)S(=O)(=O)c2ccccc2)[C@@H](C)CN([C@@H](C)CO)C(=O)c2cc(NC(=O)CCC(F)(F)F)ccc2O1` was “inactive”.

In the case of `CCC(=O)Nc1ccc2c(c1)C(=O)N(C)C[C@@H](OC)[C@H](C)CN(Cc1ccc(-c3ccccn3)cc1)[C@H](C)CO2`, the growth inhibition call is “inactive”.

`CCC(=C(CC)c1ccc(O)cc1)c1ccc(O)cc1`: the growth inhibition call was “inactive”.

On to `C[C@H](CO)N1C[C@H](C)[C@H](CN(C)CC2CCCCC2)Oc2ccc(NC(=O)Nc3ccc(F)cc3)cc2C1=O`, for which the growth inhibition call is “inactive”.

Turning to `C[C@H]1CN([C@@H](C)CO)S(=O)(=O)c2ccc(C#CC3(O)CCCC3)cc2O[C@@H]1CN(C)C(=O)Nc1cccc(F)c1`, the growth inhibition call is “inactive”. `CN1CCN(C(=O)C[C@@H]2CC[C@@H](NC(=O)c3ccc4c(c3)OCO4)[C@H](CO)O2)CC1`: the growth inhibition call was “inactive”.

In the case of `C[C@@H]1CCCCO[C@@H](CN(C)C(=O)Nc2ccc(F)cc2)[C@H](C)CN([C@H](C)CO)C(=O)c2cc(NC(=O)CCCN(C)C)ccc2O1`, the growth inhibition call was “inactive”.

For the compound `C[C@@H]1CN([C@@H](C)CO)C(=O)c2cc(NS(=O)(=O)c3cccs3)ccc2O[C@@H](C)CCCCO[C@@H]1CN(C)Cc1ccc(C(F)(F)F)cc1`, the growth inhibition call is “inactive”. As for `C[C@@H]1CN([C@@H](C)CO)C(=O)c2cc(C#Cc3cccc(F)c3)cnc2O[C@@H]1CN(C)C(=O)C1CCOCC1`, the entry is “inactive”; as for `C[C@H]1CN([C@@H](C)CO)C(=O)Cc2cc(NC(=O)Nc3ccc(C(F)(F)F)cc3)ccc2O[C@H]1CN(C)Cc1ccc(Cl)c(Cl)c1`, “inactive”; as for `Cc1noc(C)c1NC(=O)Nc1ccc2c(c1)CC(=O)N([C@H](C)CO)C[C@H](C)[C@H](CN(C)C(=O)NC(C)C)O2`, “inactive”. As for `COc1ccc(NC(=O)Nc2ccc3c(c2)C(=O)N([C@@H](C)CO)C[C@@H](C)[C@H](CN(C)C(=O)NC2CCCCC2)OCCCC[C@@H](C)O3)cc1`, the entry is “inactive”; as for `Cc1nc(N=Nc2cc(S(=O)(=O)O)c3cc([N+](=O)[O-])cc(S(=O)(=O)O)c3c2)c(COP(=O)(O)O)c(C=O)c1O`, “inactive”; as for `O=C1O[C@@H](c2ccccc2)[C@@H](c2ccccc2)N2[C@@H](c3ccccc3OCCO)[C@]3(C(=O)Nc4ccc(C#CC5(O)CCCCCC5)cc43)[C@@H](C(=O)O)[C@H]12`, “inactive”. Regarding `Cc1ccc(S(=O)(=O)N(C)C[C@@H]2Oc3ncc(C#CCC(C)C)cc3C(=O)N([C@H](C)CO)C[C@H]2C)cc1`, the growth inhibition call was “inactive”. As for `O=C(C[C@@H]1C=C[C@H](NC(=O)C2CCC2)[C@@H](CO)O1)NCCCN1CCOCC1`, the growth inhibition call was “inactive”. On to `[N-]=[N+]=N[C@]1(CO)O[C@@H](n2ccc(N)nc2=O)[C@@H](O)[C@@H]1O`, for which the growth inhibition call is “inactive”. Consider `Cc1noc(C)c1S(=O)(=O)N(C)C[C@@H]1Oc2ccc(NC(=O)C3CCCCC3)cc2CC(=O)N([C@@H](C)CO)C[C@H]1C`, for which the growth inhibition call was “inactive”. As for `C[C@H]1O[C@@H](O[C@H]2[C@@H](O)C[C@H](O[C@H]3[C@@H](O)C[C@H](O[C@H]4CC[C@@]5(C)[C@H](CC[C@@H]6[C@@H]5C[C@@H](O)[C@]5(C)[C@@H](C7=CC(=O)OC7)CC[C@]65O)C4)O[C@@H]3C)O[C@@H]2C)C[C@H](O)[C@@H]1O`, the entry is “inactive”. `O=C(C[C@@H]1C[C@@H]2c3cc(NC(=O)c4ccc5c(c4)OCO5)ccc3O[C@@H]2[C@H](CO)O1)NCc1cccnc1`: the growth inhibition call is “inactive”. As for `C[C@@H]1CCCCO[C@H](CN(C)S(=O)(=O)c2ccc(F)cc2)[C@@H](C)CN([C@@H](C)CO)C(=O)c2cc(NS(=O)(=O)c3ccc(Cl)cc3)ccc2O1`, the growth inhibition call was “inactive”. The value for `CC1C(=O)OC2CC34C5CC(C(C)(C)C)C36C(OC(=O)C6O)OC4(C(=O)O5)C21O` (stereo not given) was “inactive”; that for `COc1cccc(C#Cc2ccc3c(c2)O[C@@H](CN(C)S(=O)(=O)c2ccccc2F)[C@H](C)CN([C@H](C)CO)S3(=O)=O)c1` was “inactive”. Turning to `C[C@H](CO)N1C[C@H](C)[C@H](CN(C)C(=O)Nc2cccc3ccccc23)OCCCC[C@H](C)Oc2ccc(NS(=O)(=O)c3cn(C)cn3)cc2C1=O`, the growth inhibition call was “inactive”. Take `O=C1CO[C@@H](c2ccccc2)CN1`: the growth inhibition call is “inactive”. In the case of `COc1ccc(S(=O)(=O)Nc2ccc3c(c2)CC(=O)N([C@H](C)CO)C[C@@H](C)[C@H](CN(C)CC2CC2)O3)cc1`, the growth inhibition call is “inactive”.

As to `CC(C)C#Cc1ccc2c(c1)O[C@@H](CN(C)S(=O)(=O)c1cn(C)cn1)[C@H](C)CN([C@@H](C)CO)S2(=O)=O`, the growth inhibition call is “inactive”. In the case of `COc1ccc(C#Cc2ccc([C@H]3[C@H](CO)N4CCCCN(S(=O)(=O)c5cn(C)cn5)C[C@@H]34)cc2)cc1`, the growth inhibition call was “inactive”.
